Experimental data as given in PubChem BioAssay AID493208 (National Center for Advancing Translational Sciences (NCATS), 2011).
About 340 (0.77%) of roughly 44,000 compounds were called active. Another 5% or so got no clear call; they are omitted. Calls come from the whole dose curve; as a rule, active = well fitted inhibition curve with a large enough effect; inconclusive = small, poorly fitted or top-dose-only effect; inactive = flat fitted curve, though single readings scatter. This is one part of the list.

Assay: Acumen qHTS Assay for Inhibitors of the mTORC1 Signaling Pathway in MEF (Tsc2-/-, p53-/-) Cells: Sytravon; note: nearly all actives have a fitted effect of over 50% in size;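 for activity change, negative = inhibition: plate controls were DMSO for no effect and rapamycin for full effect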
Settings: phospho-rpS6 immunofluorescence/PI, 24 h; series mostly up to 38.3 µM; activity change, negative = inhibition: at the top concentration
How it was run: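 Compounds act on Tsc2-/-, p53-/- fibroblasts carrying an empty vector for 24 h before fixation and dual staining for phospho-S6 and DNA (propidium iodide). Values are percentages of cells above a rapamycin-defined pS6/PI threshold.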
Potency is the fitted concentration of half-maximal effect.

| Structure (SMILES) | activity change, negative = inhibition | Potency |
| --- | --- | --- |
| COc1cccc(/C=C/c2nc(C#N)c(NC3CCCCC3)o2)c1 | inactive: -9.62% |  |
| CCc1cccc(NC(=O)CSc2nnc(-c3cc4occc4n3C)n2-c2ccccc2C)c1 | inactive: -0.13% |  |
| COc1cccc(-n2c(=O)c3sc4ccccc4c3n(Cc3c(F)cccc3Cl)c2=O)c1 | inactive: 1.68% |  |
| Cc1ccc(-n2nc(CO)c(C(=O)NCCC(C)C)n2)cc1C | inactive: 4.81% |  |
| Cc1ccc(CNC(=O)c2ccc(Cn3c(SCc4ccc(F)cc4)nc4cccnc43)cc2)o1 | inactive: -0.761% |  |
| O=c1n(Cc2ccc(F)cc2)c2ccccc2c2nc(-c3ccccc3)nn12 | inactive: 2.13% |  |
| CCOC(=O)c1c(C)oc2nc(C)nc(NCC3CCN(Cc4cc(C)ccc4C)CC3)c12 | inactive: -5.9% |  |
| CCCN(C(=O)CCc1nc(-c2ccc(C)cc2)no1)c1ccc(OCC)cc1 | inactive: 0.0915% |  |
| Cc1ccc(N2C(=O)C(CC(=O)Nc3cccc(F)c3)N(CCc3ccccc3F)C2=O)cc1 (stereo not given) | inactive: -20.3% |  |
| Cc1ccccc1OCC(=O)Nc1ccc(-c2nc3cc(Cl)cc(Cl)c3o2)cc1 | inactive: -3.38% |  |
| COc1cccc(NC(=O)N(CCC(C)C)C2CCN(C(C)C)CC2)c1 | inactive: 0.428% |  |
| Cc1ccc(CNC(=O)C2CCN(S(=O)(=O)c3ccc4nc5c(c(C(=O)O)c4c3)CC(C)CC5)CC2)cc1 (stereo not given) | inactive: -11.5% |  |
| CCc1cnc2c(c1SCC(=O)NCc1ccc(C)cc1)c(=O)n(C)c(=O)n2C | inactive: 1.72% |  |
| Cn1ccc2c(OCC(=O)Nc3ccc(OC(F)(F)F)cc3)cccc2c1=O | inactive: -9.76% |  |
| CC(=O)c1ccc(NS(=O)(=O)c2ccc(Br)s2)cc1 | inactive: 4.74% |  |
| CCn1cc(C(=O)N2CCN(c3cc(Cl)ccc3C)CC2)c(=O)c2cc(S(=O)(=O)N3CCCC3)ccc21 | inactive: 0.418% |  |
| COc1cc(Cl)c(C)cc1NC(=O)c1cc2c(=O)oc3ccccc3c2s1 | inactive: -8.17% |  |
| CC(C)(C)C1CCc2c(sc(NC(=O)c3ccco3)c2C(=O)Nc2ccccc2Cl)C1 (stereo not given) | inactive: 0.807% |  |
| COc1cc2nc(SCC(=O)Nc3ccccc3C)n3nc(CCn4c(C)nc5ccccc54)nc3c2cc1OC | inactive: -2.49% |  |
| CCOCCCNC(=O)c1cn(CC)c2ccc(S(=O)(=O)N3CCOCC3)cc2c1=O | inactive: -1.91% |  |
| CCOC(=O)CSc1nc2ccc(NC(=O)COc3ccc(F)cc3)cc2s1 | inactive: -3.98% |  |
| Cc1cccc2sc(N(Cc3cccnc3)C(=O)CCOc3ccccc3)nc12 | inactive: -14.4% |  |
| CCOC(=O)c1ccc(N2CCN(c3ccccc3OC)CC2)c(NC(=O)Nc2ccc(CC)cc2)c1 | inactive: 0% |  |
| Cc1cc(C(=O)N2CCN(c3cccc(Cl)c3)CC2)c2c(C)nn(-c3ccccc3Cl)c2n1 | inactive: -5.53% |  |

| Structure (SMILES) | activity change, negative = inhibition | Potency |
| --- | --- | --- |
| COc1ccc(CNC(=O)C2=CC(c3ccc(OC)c(OC)c3)=NS(=O)(=O)N2C)cc1 | inactive: -7.88% |  |
| CCOc1ccc(NC(=O)N(Cc2cn(CC)c3ccccc23)C2CCCCCC2)cc1 | inactive: -2.3% |  |
| COc1ccc(S(=O)(=O)c2c(Nc3ccc(C)cc3C)sc(C(=O)c3ccc(F)cc3)c2N)cc1 | inactive: 1.97% |  |
| Cc1cc(C)c(NC(=O)C2CCN(S(=O)(=O)c3c(C)noc3/C=C/c3ccccc3F)CC2)c(C)c1 | inactive: -7.25% |  |
| CN(C)c1ccc(C(CNC(=O)c2ccccc2Cl)N2CCCC2)cc1 (stereo not given) | inactive: 0% |  |
| Cc1nnsc1C(=O)Oc1ccc(Cl)cc1 | inactive: -0.0768% |  |
| CN1C(=O)Cc2cc(S(=O)(=O)NCc3ccc(Cl)cc3)ccc21 | inactive: -6.83% |  |
| O=C(NCc1ccccc1)C(=O)NCC(c1cccs1)S(=O)(=O)c1cccs1 (stereo not given) | inactive: -1.13% |  |
| COc1ccc(N2CCN(CCCNC(=O)c3cnn(-c4ccc(C)cc4)c3-n3cccc3)CC2)cc1 | inactive: 0.47% |  |
| COc1cccc(N2CCN(C3=NS(=O)(=O)C(c4ccc(C)cc4)=C3C)CC2)c1 | inactive: 0.907% |  |
| Cc1ccc(Cn2c(=O)n(CCCCC(=O)NCc3ccc4c(c3)OCO4)c(=O)c3ccccc32)cc1 | inactive: 7.4% |  |
| CCC(Sc1nnc2c(n1)[nH]c1ccccc12)C(=O)Nc1ccccc1OC (stereo not given) | inactive: -4.93% |  |
| CCc1ccccc1S(=O)(=O)Cc1ccc(C(=O)NCCc2ccc(C)cc2)o1 | inactive: 1.97% |  |
| Cc1cc(C)cc(C(=O)NCCc2csc(-c3ccc(C(F)(F)F)cc3)n2)c1 | inactive: 1.55% |  |
| CCc1ccccc1NC(=O)CSc1ncc2c(n1)-c1cc(Cl)ccc1N(Cc1ccccc1)S2(=O)=O | inactive: 4.48% |  |
| Cc1c(C(=O)OCC2CCCCC2)[nH]c2c1C(=O)CC(c1ccccc1Cl)C2 (stereo not given) | inactive: -1.28% |  |
| COc1ccc(CCNC(=O)CCc2c(C)nc3c4cccnc4nn3c2C)cc1OC | inactive: -3.42% |  |
| CCCCn1cc(S(=O)(=O)c2ccc(OC)cc2)c(=O)c2cc(F)c(N3CCOCC3)cc21 | inactive: -1.5% |  |
| COc1ccc(NC(=O)c2ncn(-c3ccccc3)n2)cc1Cl | inactive: -3.21% |  |
| CCc1ccc(-n2nc(C)c3c(C)cc(=O)n(CC(=O)Nc4cc(C)ccc4C)c32)cc1 | inactive: -12% |  |
| Cc1ccc(N2C(=O)c3n[nH]c(C)c3C2c2ccccc2Cl)cc1 (stereo not given) | inactive: -17.9% |  |
| CC(=O)Nc1c(C)nn(-c2ccccc2)c1N1CCC(C(=O)Nc2cc(F)ccc2F)CC1 | inactive: 13.7% |  |
| COc1ccccc1NC(=O)N1CCN(Cc2nc3ccc(C)cc3o2)CC1 | inactive: 0% |  |
| Cc1cc2c(cc1NS(=O)(=O)c1ccc(NC(=O)CC(C)C)cc1)n(C)c(=O)c(=O)n2C | inactive: -8.13% |  |

| Structure (SMILES) | activity change, negative = inhibition | Potency |
| --- | --- | --- |
| Cc1cc(C)c(NC(=O)Cn2c(=O)n(CC3CCCO3)c(=O)c3ccccc32)c(C)c1 (stereo not given) | inactive: 9.06% |  |
| Cn1cc(S(=O)(=O)N2CCCC2)cc1C(=O)N1CCN(c2cccc(Cl)c2)CC1 | inactive: 8.55% |  |
| COc1ccc(C2=NS(=O)(=O)N(C)C(C(=O)N(C)Cc3ccccc3)=C2)cc1OC | inactive: 0.573% |  |
| Cc1ccccc1OCc1nc2ccccc2n1Cc1ccccc1Cl | inactive: -20.7% |  |
| CC(=O)c1ccc(NC(=O)CSc2cn(CC(=O)N(C(C)C)C(C)C)c3ccccc23)cc1 | inactive: -11% |  |
| CCS(=O)(=O)N1CCc2cc(C(=O)Nc3cccc(C(C)=O)c3)ccc21 | inactive: -6.87% |  |
| CCCCN(CC)C(=O)CCNS(=O)(=O)c1ccc2c(c1)c(=O)n(C)c(=O)n2C | inactive: -18.2% |  |
| CC(C)CCn1c(Oc2ccccc2F)nc2c1c(=O)n(C)c(=O)n2C | inactive: 2.13% |  |
| CCCOc1cccc(C2c3c(-c4ccccc4O)n[nH]c3C(=O)N2Cc2ccco2)c1 (stereo not given) |  | active: 14.7 µM |
| CCCNC(=O)Cn1c(=O)c2cccn2c2cccnc21 | inactive: 2.32% |  |
| CCCNC(=O)C1Cc2cc(S(=O)(=O)N3CCCCCC3)ccc2N1C(C)=O (stereo not given) | inactive: 14.1% |  |
| CCCn1cnc2cc(NCc3ccccc3OCC)ccc21 | inactive: 0.328% |  |
| CCn1c(C(=O)NCc2ccccc2Br)cc2oc3ccccc3c21 | inactive: -4.01% |  |
| COC(=O)c1ccc(C(=O)OC)c(NC(=O)c2cc3nc(-c4ccc(C)cc4)cc(C(F)(F)F)n3n2)c1 | inactive: 2.48% |  |
| CCc1cc(=O)oc2c(C)c3c(cc12)CN(CCc1ccccc1OC)CO3 | inactive: -2.28% |  |
| COCCCNC(=O)c1sc2nc(C)c(C(=O)Nc3ccc(C)cc3C)c(-c3ccccc3Cl)c2c1N | inactive: -8.74% |  |
| CCCNC(=O)CCCN1C(=O)CCn2nc(-c3cccn3C)cc21 | inactive: -4% |  |
| CCc1ccc2oc(-c3ccc(NC(=O)c4cc5ccccc5o4)cc3)nc2c1 | inactive: -7.31% |  |
| COc1ccc(C(=O)NCc2ccc3c(c2)CCN3C(=O)c2ccccc2)cc1 | inactive: -0.155% |  |
| COc1ccc(NS(=O)(=O)c2ccc(-c3cnc(C4CC4)o3)cc2)cc1Cl | inactive: -17.1% |  |
| O=C(CCSCc1cnn(-c2ccccc2)c1-n1cccc1)NCc1ccccc1Cl | inactive: -13.6% |  |
| COCCNC(=O)c1nn(-c2ccc(C)cc2)c(=O)n(C)c1=O | inactive: -0.784% |  |
| COc1ccc(C(CNC(=O)c2oc3cc(C)c(Cl)cc3c2C)N2CCCCC2)cc1 (stereo not given) | inactive: 2.23% |  |
| COCCNC(=O)CCc1c(C)n(C)c2cc(-c3cc(OC)c(OC)c(OC)c3)nn2c1=O | inactive: 1.06% |  |

| Structure (SMILES) | activity change, negative = inhibition | Potency |
| --- | --- | --- |
| CC1CCN(S(=O)(=O)c2ccc3nc(NCc4ccccc4)ccc3c2)CC1 | inactive: 0% |  |
| Cn1c(=O)c(=O)n(C)c2cc(C(=O)NCc3ccccc3Cl)ccc21 | inactive: 0.154% |  |
| O=C(Cn1nc(-c2ccc(Cl)cc2)c2ccccc2c1=O)Nc1cccc(C(F)(F)F)c1 | inactive: 5.71% |  |
| COC(=O)c1scc(-c2ccc(C)cc2)c1S(=O)(=O)N1CCN(c2ccc(C)cc2C)CC1 | inactive: -21.6% |  |
| COc1cccc(Nc2nc3ccccc3c3nncn23)c1 | inactive: -4.37% |  |
| Cn1c(SCc2cc(=O)c3cc(Cl)ccc3[nH]2)nnc1-c1ccccc1 | inactive: -14.2% |  |
| O=C(NCc1ccccc1Cl)c1c2c(nc3ccccc13)C(=O)N(C1CCCCC1)C2 | inactive: -18.7% |  |
| CCCCC(=O)Nc1ccc(OCc2cc(=O)n3c(C)csc3n2)cc1 | inactive: -16.1% |  |
| COC(=O)CCCCCn1c(-c2ccccc2)cn2c3c(=O)n(C)c(=O)n(C)c3nc12 | inactive: -23.1% |  |
| CCN(CC)c1ccc(C2C(C(=O)Nc3ccccc3C)=C(C)Nc3ncnn32)cc1 (stereo not given) | inactive: -1.08% |  |
| Cc1ccn2c(=O)cc(CSc3nnc(C)s3)nc2c1 | inactive: 3.22% |  |
| COc1ccc(OC)c(C(=O)CSc2ncc3c(n2)-c2ccccc2N(Cc2ccccc2C)S3(=O)=O)c1 | inactive: 3.9% |  |
| Cc1cccc(CCn2c(=O)c3ccccc3n(CC(=O)Nc3ccccc3F)c2=O)c1 | inactive: -18.7% |  |
| Cc1cc2c(cc1NC(=O)c1ccccc1Cl)n(C)c(=O)c(=O)n2C | inactive: -5.79% |  |
| CCN(Cc1ccccc1)Cc1c(O)ccc2c(=O)c(-c3ccc(Cl)cc3)c(C(F)(F)F)oc12 | inactive: -24.1% |  |
| CCN(CC)CCCNC(=O)c1cn(CC(C)C)c(=O)c2c1c1ccccc1n2C | inactive: 1.02% |  |
| COc1ccc(-c2nnc(SCC(=O)N3CCc4ccccc43)o2)cc1OC | inactive: -2.02% |  |
| Cc1ccc2nc(-c3ccsc3)c(Nc3ccc(Cl)cc3)n2c1 | inactive: -10.5% |  |
| Cc1cccc(-c2noc(-c3ccccc3OCC(=O)Nc3ccccc3[N+](=O)[O-])n2)c1 | inactive: 0.844% |  |
| Cc1ccn2cc(CNC(=O)c3cccc(C(F)(F)F)c3)nc2c1 | inactive: -0.547% |  |
| CC(=O)c1cccc(NC(=O)[C@H]2O[C@@H]3OC(C)(C)O[C@@H]3[C@H]3OC(C)(C)O[C@H]32)c1 | inactive: -7.91% |  |
| COc1ccc(-c2nc3scc(CCNS(=O)(=O)c4ccc(Oc5ccccc5)cc4)n3n2)cc1 | inactive: -0.0123% |  |
| CCOC(=O)c1ccc(NC(=O)C(C)Sc2nc(=O)cc(N)n2CCc2ccccc2)cc1 (stereo not given) | inactive: 7.51% |  |
